This test deals with MOLT-4 leukemia. The test is described as follows: NCI anticancer screen, dose series, 384-well format.

SMILES strings stand for the structures.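 Definition used: TGI = concentration required for complete inhibition of growth.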 For part of its entries the source gives two or more results. They are shown here; other results are not. There may be further records. Results that share an entry are repeated measurements (runs, samples, wells, individuals or studies). Brackets tell where a record comes from. The letters are not those of the source and start again with each entry.

As to `Cn1cc(-c2nc(N[C@@H]3CCCC[C@@H]3N)c(F)c3c2C(=O)NC3)cn1`, the TGI was 849 nM [sample A, 1 test] and 10.8 µM [sample B, 1 test].

For the origin of these results see PubChem BioAssay (NCI).
